Laboratory results as given in patent US20260097129A1, “ANTIBODY-DRUG CONJUGATE COMPRISING DRUG AND ANTIBODY SPECIFICALLY BINDING TO GRP94 OR ANTIGEN-BINDING FRAGMENT THEREOF” (KOOKMIN UNIVERSITY INDUSTRY ACADEMY COOPERATION FOUNDATION, priority 2022, published 2026).

System: HCT116 cells
Test: Antibody internalization, FabFluor-pH Red labeling, Incucyte live cell imaging
Assay type: cell-based, human
Conditions: labeled antibody 2 μg/mL, imaged for 10 hours, Example 2, FIG. 10
Protocol: Antibody internalization in HCT116 cells was measured using the FabFluor-pH Red Antibody Labeling Reagent (Sartorius, Gottingen, Germany) according to the manufacturer's instructions. […] HCT116 cells were seeded at a density of 10,000 cells/well in a 96-well culture plate and allowed to adhere overnight. The control IgG, K101.1, or trastuzumab (MedChemExpress, Princeton, NJ, USA) were individually labeled with the human FabFluor-pH Red antibody labeling reagent at a 1:3 molar ratio in PBS and incubated for 15 minutes. The labeled antibodies were added to the cell culture medium at a final concentration of 2 μg/ml. The plate was transferred to the Incucyte SX1 live cell analysis system (Sartorius) and images were captured with a 10× objective lens for 12 hours. The fluorescence intensity was individually measured for each image.
The internalization of antibodies in HCT116 cells was measured using the FabFluor-pH Red antibody labeling reagent (Sartorius, Göttingen, Germany) according to the manufacturer's instructions. […] However, after internalization of the reagent-labeled antibody, the fluorescence intensity increases under the acidic conditions inside endosomes and lysosomes. HCT116 cells were seeded at a density of 10,000 cells per well in a 96-well culture plate and allowed to attach overnight. […] Fluorescence intensity was then measured.

B1: K101.3: GRP94-specific IgG antibody, CDRs SEQ ID NO: 9-14, VH SEQ ID NO: 15, VL SEQ ID NO: 16 (antibody, V domains shown)
VH: EVQLLESGGGLVQPGGSLRLSCAASGFTFSGYAMSWVRQAPGKGLEWVSAISHGGSSKYYADSVKGRFTISRDNSKNTLYLQMNSLRAEDTAVYYCAKDLLSPLQSIGSYDDAMDVWGQGTLVTVSS
VL: QSVLTQPPSASGTPGQRVTISCSGSSSNIGSNTVSWYQQLPGTAPKLLIYADNNRPSGVPDRFSGSKSGTSASLAISGLRSEDEADYYCASWDDSLNAYVFGGGTKLTVL
antibody internalization (FabFluor fluorescence intensity): exhibited stronger internalization than trastuzumab
